Experimental data as given in PubChem BioAssay AID485294 (National Center for Advancing Translational Sciences (NCATS), 2010).
The campaign covered roughly 370,000 compounds. About 150 (0.041%) were called active. The shares of active, inactive and inconclusive entries below differ from those in the screen. Calls come from the whole dose curve; as a rule, active = well fitted inhibition curve with a large enough effect; inconclusive = small, poorly fitted or top-dose-only effect; inactive = flat fitted curve, though single readings scatter. Potencies of inconclusive entries are left out as doubtful fits.

The molecules below were run against Beta-lactamase (Escherichia coli (strain K12)) (UniProt P00811) (assay: qHTS Inhibitors of AmpC Beta-Lactamase (assay with detergent)). Conditions: AmpC hydrolysis of nitrocefin, absorbance 480 nm, 0.01% Triton; series mostly up to 114 µM.
Chain of UniProt P00811 (P00811 whole entry, looked up): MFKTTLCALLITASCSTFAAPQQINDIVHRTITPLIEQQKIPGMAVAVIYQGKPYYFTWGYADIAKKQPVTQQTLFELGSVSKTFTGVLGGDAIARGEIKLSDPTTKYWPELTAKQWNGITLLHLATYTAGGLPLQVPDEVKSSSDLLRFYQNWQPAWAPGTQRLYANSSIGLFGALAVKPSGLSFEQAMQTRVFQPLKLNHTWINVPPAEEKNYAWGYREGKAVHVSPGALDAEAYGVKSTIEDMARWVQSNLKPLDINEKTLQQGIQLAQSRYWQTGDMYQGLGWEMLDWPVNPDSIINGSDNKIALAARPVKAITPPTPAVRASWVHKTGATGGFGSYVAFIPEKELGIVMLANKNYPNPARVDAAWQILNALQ
Method in brief: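 AmpC (5.3 nM in the dispensed reagent) in 20 mM phosphate pH 7.0 with 0.01% (detergent screen) or 0.0001% Triton X-100 was preincubated with compounds for 15 min at room temperature. Nitrocefin was then added from an 800 uM solution, and hydrolysis was followed at 480 nm.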
Note: nearly all actives have a fitted effect of over 25% in size.
Potency is the fitted concentration of half-maximal effect; tags give direction and shape of the fitted curve.

Row | Structure (SMILES) | Potency
1 | CN(C(=O)c1ccc(Br)o1)C1CCS(=O)(=O)C1 (stereo not drawn) | inconclusive [inhibitor, full curve]
2 | CCN(Cc1cc(=O)n2cc(Cl)c(C)c(Cl)c2n1)Cc1nc2ccccc2c(=O)[nH]1 | inconclusive [inhibitor, partial curve]
3 | COc1ccc(C(=O)Nc2c(N)nc(SCC(=O)Nc3ccc(NC(C)=O)cc3)[nH]c2=O)cc1OC | inactive
4 | CC(=O)C1=C(c2ccc(Br)cc2)C(=O)c2ccccc2C1=O | inconclusive [inhibitor, partial curve]
5 | CCN(c1ccccc1)S(=O)(=O)c1ccc(OC)c(NC(=O)c2cc(Cl)ccn2)c1 | inconclusive [inhibitor, full curve, poor fit]
6 | O=C1CC(NS(=O)(=O)c2cccs2)CN1c1cccc(F)c1 (stereo not drawn) | inconclusive [inhibitor, full curve, poor fit]
7 | CCOc1ccc(-c2cc(CCCC(=O)NCc3ccco3)no2)cc1 | inconclusive [inhibitor, partial curve, poor fit]
8 | Cc1cccc(NC(=O)C2CCN(C(=O)c3ccc(F)cc3)CC2)n1 | inconclusive [inhibitor, full curve, poor fit]
9 | CCCc1cc(=O)oc2c(C)c(OCC(=O)N3CCC(C(N)=O)CC3)ccc12 | inconclusive [inhibitor, full curve, poor fit]
10 | Cc1ccccc1C(=O)Nc1ccccc1C(=O)OCc1cc(=O)n2ccsc2n1 | inactive
11 | CCC1C/C(=C/c2ccco2)C(=O)/C(=C/c2ccco2)C1 (stereo not drawn) | inconclusive [inhibitor, partial curve]
12 | Cc1cc(Cl)ccc1OCC(=O)Nc1ccc2oc(=O)ccc2c1 | inconclusive [inhibitor, partial curve]
13 | COc1ccc(CCNC(=O)Cn2cc(C(=O)c3ccccc3)c(=O)c3ccc(C)nc32)cc1OC | inactive
14 | CC(C)C[C@H](NC(=O)c1nc[nH]c1C(=O)N[C@@H](CCCCNC(=O)OC(C)(C)C)C(=O)OC(C)(C)C)C(=O)OCc1ccccc1 | inactive
15 | CC1=C(C(=O)OCc2ccccc2)C(c2ccc(Cl)cc2Cl)NC(=O)N1CCCCCC(=O)O (stereo not drawn) | inconclusive [inhibitor, partial curve]
16 | O=C(C[N+]12CCC(CC1)C(C(O)(c1ccccc1)c1ccccc1)C2)c1ccc(Br)cc1 (stereo not drawn) | inactive
17 | CCOC(=O)c1c(S(=O)(=O)N2CCC(C(=O)Nc3ccccc3OC)CC2)c(C)n(CC)c1C | inactive
18 | Cc1cc(C(=O)COC(=O)C(C)NC(N)=O)c(C)n1Cc1ccco1 (stereo not drawn) | inactive
